# Laboratory results published in ChEMBL document CHEMBL4888484, “Replenishing the malaria drug discovery pipeline: Screening and hit evaluation of the MMV Hit Generation Library 1 (HGL1) against asexual blood stage Plasmodium falciparum ,using a nano luciferase reporter read-out” (2022).
# Among all 4,800 compounds or so, about 420 (8.8%) showed an effect of 50% or more. The list shows a part of the results.
# Test system: Plasmodium falciparum
# Assay: Confirmatory screen in NF54 nanoGlo assay, in single point, at 2uM, 72h
# Format: functional, Erythrocyte
# Conditions: timepoint 72 hour
row,Structure (SMILES),% Inhibition
1,O=S(=O)(NC1CC(c2ccc(F)c(Cl)c2)C1)C1CC1 (centres undefined),2%
2,CCN1C(=O)COc2ccc(-c3csc(NC(=O)[C@@H]4CCCO4)n3)cc21,-1%
3,CN1CCC[C@H](c2nnc3sc(-c4ccc(OCc5ccccc5)cc4)nn23)C1,-3%
4,N#Cc1ccccc1OCc1csc(-c2ccccn2)n1,-4%
5,COc1ccccc1CN1COc2cc3c(cc2C1)OCO3,22%
6,COc1ccc(-c2cc3n(n2)C[C@@](C)(C(=O)NCc2ccccc2OC)N(c2cccc(OC)c2)C3=O)cc1,49%
7,COc1cccc(NC(=O)Cn2c(=O)n(C)c(=O)c3sc(N4CCCC4)nc32)c1,0%
8,O=C1COc2ccc(S(=O)(=O)N[C@H]3COc4ccccc43)cc2N1,-3%
9,CCNS(=O)(=O)c1cc(C)ccc1C,1%
10,COc1ccc(-c2cc3c(N4CCN(C)CC4)nccn3n2)cc1OC,1%
11,COc1ncccc1CNC(=O)[C@@H]1CCN(c2cc(C)cc(C)c2)C1=O,3%
12,CCCn1cc2c(C(=O)Nc3ccc(Br)cc3F)cc(=O)[nH]c2n1,-13%
13,OC1CCCC1N1CCC(c2ccccc2)CC1 (centres undefined),-2%
14,O=C(c1c[nH]c2ccc(Br)cc12)N1CCC[C@H]1c1ccc2c(c1)OCCO2,5%
15,Oc1ccc2ncccc2c1[C@@H](Nc1ccccn1)c1cccc(Br)c1,67%
16,Nc1nc2ccc(N3CCCC3)cc2s1,19%
17,C[n+]1cc(-c2ccc3ccccc3n2)c(C#N)c2ccccc21,-3%
18,O=C1N[C@H]2C[C@@H](C(=O)NC[C@H]3O[C@H](CCOc4cc(-c5ccccc5)ccc41)CC[C@@H]3O)N(Cc1ccc3c(c1)OCO3)C2,11%
19,COCCCn1c(=O)c2ccccc2n(CC(=O)N2CCc3ccccc32)c1=O,-8%
20,C#CCCCOc1cccnc1N1CCC(OC)CC1,-6%
21,CCn1cc(C(=O)N(C2CCCCC2)C2CCCCC2)c(C)n1,-19%
22,COc1nccc(NC(=O)c2ccccc2Cl)n1,-13%

row,Structure (SMILES),% Inhibition
1,O=C(Nc1ccc(N2CCC(Cc3ccccc3)CC2)cc1C(=O)O)c1ccc(F)cc1,-12%
2,NC(=O)NC(=O)COc1ccc(Br)cc1,1%
3,O=C(c1cn(CC2CC2)nn1)N1CCCC2(CC2)C1,2%
4,Cc1ccc(C(=O)Nc2nnc(-c3ccoc3C)o2)cc1C,-2%
5,Cc1cc(NC(=O)Cn2cnc3nc(N(C)Cc4ccccc4)sc3c2=O)no1,-7%
6,Cc1ccc(C(=O)NCc2ccc(-c3nc4ccccc4s3)cc2)cc1,-9%
7,O=C1NCCCOc2cccc(c2)[C@H]2c3ccc(cc3CCN2C(=O)CCN2CCOCC2)Oc2ccc(O)c1c2,59%
8,COc1ccc(NC(=O)c2nc(Nc3ccccc3)c3ccccc3n2)cc1,17%
9,COCCN(Cc1nc(C(=O)NC(C)C)cs1)C(=O)Nc1ccc(C(C)C)cc1,4%
10,CCOC(=O)N1CCc2c(nc(-c3ccc(C)cc3)n(CC(=O)Nc3ccc(C(C)C)cc3)c2=O)C1,-16%
11,CCOc1ccc(CN2CC[C@H](Nc3ncccn3)[C@@H](O)C2)cc1Cl,-13%
12,C=CCNC(=O)N(Cc1ccccn1)c1ccc(Oc2cccc(C)c2C)nc1,6%
13,CC(C)c1ccc(NC(=O)CCCC(=O)O)cc1,3%
14,COc1ncnc2c1CN(C(=O)c1cc3c(s1)CC[C@H](C)C3)CC2,-1%
15,CN(C)CCNC(=O)Nc1ccn(-c2ncccc2Cl)n1,1%
16,O=C(COc1ccccc1)N1CC(n2cnnc2C2CC2)C1,-11%
17,O=C1CN(CC(=O)N2CCCC2CC2CC3CCC2C3)C(=O)N1 (centres undefined),-9%
18,COc1cc(OC)c(S(=O)(=O)NC(C)C)cc1S(=O)(=O)NC(C)C,-4%
19,CN(Cc1nnc2n1CCC2)C(=O)Cc1cccs1,3%
20,CN(Cc1ccc(-c2ccccc2)cc1)c1cc([C@H]2C[C@@H](N)C2)nc(N)n1,49%
21,Cc1ccc(N(CC#N)S(=O)(=O)c2ccc3nnc(C)n3c2)cc1,-15%
22,CCC(CC)C(=O)Nc1cccc(Cl)c1C,-1%

row,Structure (SMILES),% Inhibition
1,O=C(Nc1ccc(OC2CCC2)c(F)c1)N1CC[C@H](O)C1,-2%
2,O=C(Cc1ccccc1Cl)N1CCc2[nH]nc(C(=O)N3CCN(c4ccc(F)cc4)CC3)c2C1,-1%
3,O=C(NCc1ccccc1)c1cnn2c3c(cnc12)CCCCCC3,2%
4,C#CCN(CCCc1ccccc1C)[C@H]1CCS(=O)(=O)C1,-9%
5,Cc1ccnc(-c2ccc(NC(=O)[C@@H]3CCN(c4ccc(Cl)cc4)C3=O)cc2)n1,-21%
6,NC(=O)c1ccc(C(F)(F)F)n(CC(=O)N(Cc2ccc(F)cc2)C2CCCCC2)c1=O,-6%
7,COc1ccc2c(c1)/C(=C1/SC(C(C)=O)=C(c3ccccc3)S1)C(=S)C(C)(C)N2C(=O)Nc1ccc(Cl)c(Cl)c1,-7%
8,COc1ccc(NC(=O)C2C3NC(=O)N(c4ccccc4)C2(C)Oc2ccc(Cl)cc23)cc1 (centres undefined),-12%
9,NC(=O)COCC(=O)Nc1ccccc1,-17%
10,COc1cccc(C2=Nc3cccnc3N(CC(=O)Nc3ccc(C)c(Cl)c3)C(=O)C2)c1,-4%
11,CC(C)Cn1nc2ccc(S(=O)(=O)N3CCOCC3)cn2c1=O,-3%
12,COCCNc1cncc(Br)c1,-4%
13,O=C(Cc1ccccc1)Nc1cccc2c1C(=O)N(c1ccccc1)C2=O,-14%
14,Cc1cccc2sc(N3CCC[C@H](CNS(N)(=O)=O)C3)nc12,1%
15,COc1cccc(NC(=O)N2CCN(c3nc4ccccc4n(Cc4ccccc4)c3=O)CC2)c1,-3%
16,Cc1c(N=C2NC3(CCCCC3)Cc3ccccc32)c(=O)n(C)n1-c1ccccc1,-1%
17,O=C1CCCN1c1ccc(-c2csc(C3CC3)n2)cc1,-12%
18,COc1ccc([C@H](NC(=O)CCc2ccccc2)c2c(O)ccc3ccccc23)cc1,41%
19,COCC(=O)NC1CCC(NC(=O)c2csc(COc3cc(C)ccc3C(C)C)n2)CC1 (centres undefined),9%
20,COc1ccc(-c2nn(-c3ccccc3)c(O)c2C(c2ccc(C(=O)O)cc2)c2c(-c3ccc(OC)cc3)nn(-c3ccccc3)c2O)cc1,2%
